# The supplement of paper PMC8728848
# Some of the results follow.
# Key:
# Test in all cases: glycan array binding signal (z-score within array); higher = stronger binding
# Conditions in all cases: glycan notation: IUPAC condensed, linker removed
# [1] = target: GalNAc(b1-4)GlcNAc(b1-2)Man
# In short: (§1)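 Glycan array data were curated from 3228 arrays in the Consortium for Functional Glycomics database and kept only where the protein sequence was available. Glycan names were converted to IUPAC-condensed notation, and columns mapping to the same glycan were averaged. The binding signal is a within-array Z-score, averaged across arrays of the same protein sequence at different concentrations or buffers and across linkers. Negative Z-scores can be read as non-binding.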
# [2] = target: GalNAc(b1-4)GlcNAc(b1-2)Man(a1-3)[GalNAc(b1-4)GlcNAc(b1-2)Man(a1-6)]Man(b1-4)GlcNAc(b1-4)GlcNAc
# In short: as §1
# [3] = target: GalNAc(b1-4)GlcNAc(b1-3)GalNAc(b1-4)GlcNAc
# In short: as §1
# [4] = target: GalNAc(b1-4)GlcNAc6S
# In short: as §1
# [5] = target: GalNAc(b1-6)GalNAc
# In short: as §1
# [6] = target: GalNAc3S(b1-4)GlcNAc
# In short: as §1
# [7] = target: GalNAc3S(b1-4)GlcNAc3S
# In short: as §1
# [8] = target: GalNAc3S(b1-4)[Fuc(a1-3)]GlcNAc
# In short: as §1
# [9] = target: GalNAc4S6S(b1-4)GlcNAc
# In short: as §1
# [10] = target: GalNAc6S(b1-4)GlcNAc
# In short: as §1
# [11] = target: Glc(a1-4)Glc
# In short: as §1
# [12] = target: Glc(a1-4)Glc(a1-4)Glc(a1-4)Glc
# In short: as §1
# [13] = target: Glc(a1-6)Glc(a1-6)Glc
# In short: as §1
# [14] = target: Glc(a1-6)Glc(a1-6)Glc(a1-6)Glc
# In short: as §1
# [15] = target: Glc(b1-4)Glc
# In short: as §1
# [16] = target: Glc(b1-6)Glc
# In short: as §1
# [17] = target: GlcA(b1-3)Gal
# In short: as §1
# [18] = target: GlcA(b1-3)GlcNAc
# In short: as §1
# [19] = target: GlcA(b1-6)Gal
# In short: as §1
# [20] = target: GlcA3S(b1-3)Gal(b1-4)GlcNAc(b1-2)Man
# In short: as §1
# [21] = target: GlcA3S(b1-3)Gal(b1-4)GlcNAc(b1-3)Gal(b1-4)Glc
# In short: as §1
# [22] = target: GlcNAc(a1-3)Gal(b1-4)GlcNAc
# In short: as §1
# [23] = target: GlcNAc(a1-4)Gal(b1-3)GlcNAc
# In short: as §1
# [24] = target: GlcNAc(a1-4)Gal(b1-4)GalNAc
# In short: as §1
# [25] = target: GlcNAc(a1-4)Gal(b1-4)GlcNAc
# In short: as §1
# [26] = target: GlcNAc(a1-4)Gal(b1-4)GlcNAc(b1-3)Gal(b1-4)Glc
# In short: as §1
# [27] = target: GlcNAc(a1-4)Gal(b1-4)GlcNAc(b1-3)Gal(b1-4)GlcNAc
# In short: as §1
# [28] = target: GlcNAc(a1-4)Gal(b1-4)GlcNAc(b1-3)Gal(b1-4)GlcNAc(b1-3)Gal(b1-4)GlcNAc
# In short: as §1
# [29] = target: GlcNAc(a1-4)Gal(b1-4)GlcNAc(b1-3)Gal(b1-4)[Fuc(a1-3)]GlcNAc(b1-3)Gal(b1-4)[Fuc(a1-3)]GlcNAc
# In short: as §1
# [30] = target: GlcNAc(a1-6)Gal(b1-4)GlcNAc
# In short: as §1
# [31] = target: GlcNAc(b1-2)Gal(b1-3)GalNAc
# In short: as §1
# [32] = target: GlcNAc(b1-2)Man(a1-3)[GlcNAc(b1-2)Man(a1-6)]Man(b1-4)GlcNAc(b1-4)GlcNAc
# In short: as §1
# [33] = target: GlcNAc(b1-2)Man(a1-3)[GlcNAc(b1-2)Man(a1-6)]Man(b1-4)GlcNAc(b1-4)[Fuc(a1-6)]GlcNAc
# In short: as §1
# [34] = target: GlcNAc(b1-2)Man(a1-3)[GlcNAc(b1-4)][GlcNAc(b1-2)Man(a1-6)]Man(b1-4)GlcNAc(b1-4)GlcNAc
# In short: as §1
# [35] = target: GlcNAc(b1-2)Man(a1-3)[GlcNAc(b1-4)][GlcNAc(b1-2)Man(a1-6)]Man(b1-4)GlcNAc(b1-4)[Fuc(a1-6)]GlcNAc
# In short: as §1
# [36] = target: GlcNAc(b1-2)[GlcNAc(b1-4)]Man(a1-3)[GlcNAc(b1-2)Man(a1-6)]Man(b1-4)GlcNAc(b1-4)GlcNAc
# In short: as §1
# [37] = target: GlcNAc(b1-2)[GlcNAc(b1-4)]Man(a1-3)[GlcNAc(b1-4)][GlcNAc(b1-2)Man(a1-6)]Man(b1-4)GlcNAc(b1-4)GlcNAc
# In short: as §1
binder,measurement,setting,value
PX9961T-pdi-555-33-555 (Parabacteroides distasonis) (protein) FDEETAFQSPTLVYVNTVASLYNNMFKIMGNDRHVYDLNTFSSDEAMLPCRIGDWEDGGLWQNIFLHRWGTMNDLTKNSWDFLYEQIGKCNQSVDKLQAFAEEQPDVEYFKVYLEEVRAVRAFFYYELLDLFARVPLVTSSTTPMSEVKQSERSVVFNFVRSELEEALPYLSDNRSNQKGEYYGRITKPVAYMILAKLALNAEVYADDNWTDGNRPAGKNIKFTVDGKEMNAWEATIAYVDKLEALGYKLQGNFSENFAVANETSVENIFTVPMDPVAYPDAKDYNLVRTRHYDHATAYGQSGWNGSCATVKAMNVFKFGTADEDPRCKLTYFTGEVTGPDGKTIYTEWDGQKVPLKYEPNAPKVYMDASDGLLVKTAGARMAKYEFDQNAQDGGNLHGNDCVIFRFADALLMKAEAKIRLGQNGDDEVNQVRNRVGAKPLQNVTLDTLLDERMLELAWEGVRRQDLIRFGKFTEATVDRYVGVKHFASSLDYQEDKTGYTTVFSIYADILSLNPNLTQNPGY,glycan array binding signal (z-score),[1],-0.588
same,glycan array binding signal (z-score),[2],0.877
same,glycan array binding signal (z-score),[3],0.094
same,glycan array binding signal (z-score),[4],-0.349
same,glycan array binding signal (z-score),[5],-0.518
same,glycan array binding signal (z-score),[6],-0.622
same,glycan array binding signal (z-score),[7],-0.306
same,glycan array binding signal (z-score),[8],-0.836
same,glycan array binding signal (z-score),[9],-0.196
same,glycan array binding signal (z-score),[10],-0.073
same,glycan array binding signal (z-score),[11],-0.426
same,glycan array binding signal (z-score),[12],-0.315
same,glycan array binding signal (z-score),[13],0.357
same,glycan array binding signal (z-score),[14],-0.341
same,glycan array binding signal (z-score),[15],-0.432
same,glycan array binding signal (z-score),[16],0.449
same,glycan array binding signal (z-score),[17],-0.265
same,glycan array binding signal (z-score),[18],-0.422
same,glycan array binding signal (z-score),[19],-0.557
same,glycan array binding signal (z-score),[20],-0.676
same,glycan array binding signal (z-score),[21],-0.546
same,glycan array binding signal (z-score),[22],0.406
same,glycan array binding signal (z-score),[23],0.039
same,glycan array binding signal (z-score),[24],-0.4
same,glycan array binding signal (z-score),[25],-0.388
same,glycan array binding signal (z-score),[26],-0.405
same,glycan array binding signal (z-score),[27],-0.402
same,glycan array binding signal (z-score),[28],-0.266
same,glycan array binding signal (z-score),[29],0.776
same,glycan array binding signal (z-score),[30],-0.246
same,glycan array binding signal (z-score),[31],0.188
same,glycan array binding signal (z-score),[32],-0.255
same,glycan array binding signal (z-score),[33],0.514
same,glycan array binding signal (z-score),[34],-0.416
same,glycan array binding signal (z-score),[35],-0.375
same,glycan array binding signal (z-score),[36],0.085
same,glycan array binding signal (z-score),[37],-0.029
